# Measurements published in US20210238308A1 (Chugai, published 2021).
# T1: PRYSPRY domain of human TRIM21 with N-terminal 6xHis tag (human)
# T1 construct: Expressed in E. coli; also called hTRIM21; human TRIM21.PRYSPRY
# T1 chain: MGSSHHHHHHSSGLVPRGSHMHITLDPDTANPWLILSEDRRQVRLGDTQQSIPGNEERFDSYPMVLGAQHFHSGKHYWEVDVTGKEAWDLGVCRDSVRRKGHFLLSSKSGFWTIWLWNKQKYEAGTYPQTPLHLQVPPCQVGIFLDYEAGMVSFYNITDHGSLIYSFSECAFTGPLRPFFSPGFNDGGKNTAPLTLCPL
# T2: PRYSPRY domain of mouse TRIM21 with N-terminal 6xHis tag (mouse)
# T2 construct: Expressed in E. coli; also called mTRIM21; mouse TRIM21.PRYSPRY
# T2 chain: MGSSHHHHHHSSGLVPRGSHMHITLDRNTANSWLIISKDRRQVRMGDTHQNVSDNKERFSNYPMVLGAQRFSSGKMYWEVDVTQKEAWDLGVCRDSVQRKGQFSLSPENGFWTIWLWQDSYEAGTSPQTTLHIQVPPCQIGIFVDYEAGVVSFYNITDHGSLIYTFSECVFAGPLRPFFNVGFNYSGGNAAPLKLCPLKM
# B1: MRAH-G1d/MRAL-KT0 E345V (antibody, human IgG1, kappa)
# heavy: QVQLQESGPGLVRPSQTLSLTCTVSGYSITSDHAWSWVRQPPGRGLEWIGYISYSGITTYNPSLKSRVTMLRDTSKNQFSLRLSSVTAADTAVYYCARSLARTTAMDYWGQGSLVTVSS[human IgG1 constant region with E345V (EU numbers) omitted here]
# light: DIQMTQSPSSLSASVGDRVTITCRASQDISSYLNWYQQKPGKAPKLLIYYTSRLHSGVPSRFSGSGSGTDFTFTISSLQPEDIATYYCQQGNTLPYTFGQGTKVEIKRTVAAPSVFIFPPSDEQLKSGTASVVCLLNNFYPREAKVQWKVDNALQSGNSQESVTEQDSKDSTYSLSSTLTLSKADYEKHKVYACEVTHQGLSSPVTKSFNRGEC
# B2: MRAH-G1d/MRAL-KT0 H435D (antibody, human IgG1, kappa)
# heavy: QVQLQESGPGLVRPSQTLSLTCTVSGYSITSDHAWSWVRQPPGRGLEWIGYISYSGITTYNPSLKSRVTMLRDTSKNQFSLRLSSVTAADTAVYYCARSLARTTAMDYWGQGSLVTVSS[human IgG1 constant region with H435D (EU numbers) omitted here]
# light: B1 light
# notes: copies: 2 + 2
# B3: MRAH-G1d/MRAL-KT0 H433W (antibody, human IgG1, kappa)
# heavy: QVQLQESGPGLVRPSQTLSLTCTVSGYSITSDHAWSWVRQPPGRGLEWIGYISYSGITTYNPSLKSRVTMLRDTSKNQFSLRLSSVTAADTAVYYCARSLARTTAMDYWGQGSLVTVSS[human IgG1 constant region with H433W (EU numbers) omitted here]
# light: B1 light
# notes: copies: 2 + 2
# B4: MRAH-G1d/MRAL-KT0 H435A (antibody, human IgG1, kappa)
# heavy: QVQLQESGPGLVRPSQTLSLTCTVSGYSITSDHAWSWVRQPPGRGLEWIGYISYSGITTYNPSLKSRVTMLRDTSKNQFSLRLSSVTAADTAVYYCARSLARTTAMDYWGQGSLVTVSS[human IgG1 constant region with H435A (EU numbers) omitted here]
# light: B1 light
# notes: copies: 2 + 2
# B5: MRAH-G1d/MRAL-KT0 E345Y (antibody, human IgG1, kappa)
# heavy: QVQLQESGPGLVRPSQTLSLTCTVSGYSITSDHAWSWVRQPPGRGLEWIGYISYSGITTYNPSLKSRVTMLRDTSKNQFSLRLSSVTAADTAVYYCARSLARTTAMDYWGQGSLVTVSS[human IgG1 constant region with E345Y (EU numbers) omitted here]
# light: B1 light
# B6: MRAH-G1d/MRAL-KT0 H433N (antibody, human IgG1, kappa)
# heavy: QVQLQESGPGLVRPSQTLSLTCTVSGYSITSDHAWSWVRQPPGRGLEWIGYISYSGITTYNPSLKSRVTMLRDTSKNQFSLRLSSVTAADTAVYYCARSLARTTAMDYWGQGSLVTVSS[human IgG1 constant region with H433N (EU numbers) omitted here]
# light: B1 light
# notes: copies: 2 + 2
# B7: MRAH-G1d/MRAL-KT0 H433T (antibody, human IgG1, kappa)
# heavy: QVQLQESGPGLVRPSQTLSLTCTVSGYSITSDHAWSWVRQPPGRGLEWIGYISYSGITTYNPSLKSRVTMLRDTSKNQFSLRLSSVTAADTAVYYCARSLARTTAMDYWGQGSLVTVSS[human IgG1 constant region with H433T (EU numbers) omitted here]
# light: B1 light
# notes: copies: 2 + 2
# B8: MRAH-G1d/MRAL-KT0 H435F (antibody, human IgG1, kappa)
# heavy: QVQLQESGPGLVRPSQTLSLTCTVSGYSITSDHAWSWVRQPPGRGLEWIGYISYSGITTYNPSLKSRVTMLRDTSKNQFSLRLSSVTAADTAVYYCARSLARTTAMDYWGQGSLVTVSS[human IgG1 constant region with H435F (EU numbers) omitted here]
# light: B1 light
# notes: copies: 2 + 2
# B9: MRAH-G1d/MRAL-KT0 H433P (antibody, human IgG1, kappa)
# heavy: QVQLQESGPGLVRPSQTLSLTCTVSGYSITSDHAWSWVRQPPGRGLEWIGYISYSGITTYNPSLKSRVTMLRDTSKNQFSLRLSSVTAADTAVYYCARSLARTTAMDYWGQGSLVTVSS[human IgG1 constant region with H433P (EU numbers) omitted here]
# light: B1 light
# notes: copies: 2 + 2
# B10: MRAH-G1d/MRAL-KT0 H433L (antibody, human IgG1, kappa)
# heavy: QVQLQESGPGLVRPSQTLSLTCTVSGYSITSDHAWSWVRQPPGRGLEWIGYISYSGITTYNPSLKSRVTMLRDTSKNQFSLRLSSVTAADTAVYYCARSLARTTAMDYWGQGSLVTVSS[human IgG1 constant region with H433L (EU numbers) omitted here]
# light: B1 light
# notes: copies: 2 + 2
# B11: MRAH-G1d/MRAL-KT0 H433E (antibody, human IgG1, kappa)
# heavy: QVQLQESGPGLVRPSQTLSLTCTVSGYSITSDHAWSWVRQPPGRGLEWIGYISYSGITTYNPSLKSRVTMLRDTSKNQFSLRLSSVTAADTAVYYCARSLARTTAMDYWGQGSLVTVSS[human IgG1 constant region with H433E (EU numbers) omitted here]
# light: B1 light
# notes: copies: 2 + 2
# B12: MRAH-G1d/MRAL-KT0 H435I (antibody, human IgG1, kappa)
# heavy: QVQLQESGPGLVRPSQTLSLTCTVSGYSITSDHAWSWVRQPPGRGLEWIGYISYSGITTYNPSLKSRVTMLRDTSKNQFSLRLSSVTAADTAVYYCARSLARTTAMDYWGQGSLVTVSS[human IgG1 constant region with H435I (EU numbers) omitted here]
# light: B1 light
# notes: copies: 2 + 2
# B13: MRAH-G1d/MRAL-KT0 H433I (antibody, human IgG1, kappa)
# heavy: QVQLQESGPGLVRPSQTLSLTCTVSGYSITSDHAWSWVRQPPGRGLEWIGYISYSGITTYNPSLKSRVTMLRDTSKNQFSLRLSSVTAADTAVYYCARSLARTTAMDYWGQGSLVTVSS[human IgG1 constant region with H433I (EU numbers) omitted here]
# light: B1 light
# notes: copies: 2 + 2
# Target: T3, human FcRn (human, UniProt P55899 part only; P61769 part only, limits assumed)
# T3 construct: also called hFcRn
# Test: SPR, Protein L capture
row,hFcRn binding level ratio (variant/control antibody),Binder
1,0.92,B1
2,0.03,B2
3,0.36,B3
4,0.01,B4
5,0.89,B5
6,0.77,B6
7,0.57,B7
8,0.05,B8
9,1.2,B9
10,0.63,B10
11,0.55,B11
12,0.01,B12
13,0.56,B13

# Target: T1, PRYSPRY domain of human TRIM21 with …
# Test: SPR, Protein L capture
row,hTRIM21 binding level ratio (variant/control antibody),Binder
1,0.422,B1
2,0.007,B2
3,-0.027,B3
4,-0.022,B4
5,0.6,B5
6,-0.071,B6
7,-0.007,B7
8,0.018,B8
9,-0.019,B9
10,-0.016,B10
11,0.008,B11
12,-0.08,B12
13,-0.002,B13

# Target: T2, PRYSPRY domain of mouse TRIM21 with …
# Test: SPR, Protein L capture
row,mTRIM21 binding level ratio (variant/control antibody),Binder
1,2.33,B1
2,0.208,B2
3,-0.218,B3
4,1.62,B4
5,2.66,B5
6,-0.303,B6
7,-0.116,B7
8,2.79,B8
9,-0.204,B9
10,-0.18,B10
11,-0.098,B11
12,0.461,B12
13,-0.097,B13
